Measurements published in PubChem BioAssay AID588795 (National Center for Advancing Translational Sciences (NCATS), 2011).
In all, about 390,000 compounds went through this assay and about 1,400 (0.36%) were called active. Inconclusive results, whose numbers are uncertain, are shown with a selection of clear calls. Calls come from the whole dose curve; as a rule, active = well fitted inhibition curve with a large enough effect; inconclusive = small, poorly fitted or top-dose-only effect; inactive = no such curve, though single readings can be large or run the other way. Potencies beside an inconclusive call are fits to weak or partial responses and may not hold up.
% is set by controls: 0 for no effect and ±100 for the full control effect; potency is the fitted concentration of half-maximal effect; tags give direction and shape of the fitted curve.
Note: nearly all actives have a fitted effect of over 65% in size.

The compounds below were run against Flap endonuclease 1 (Homo sapiens) (UniProt P39748) (assay: qHTS Assay for the Inhibitors of Human Flap endonuclease 1 (FEN1).). Settings: Recombinant FEN1 flap cleavage, fluorescence, 15 min; series mostly up to 114 µM; activity change, negative = inhibition: at the top concentration.
Chain of UniProt P39748 (P39748 whole entry, looked up): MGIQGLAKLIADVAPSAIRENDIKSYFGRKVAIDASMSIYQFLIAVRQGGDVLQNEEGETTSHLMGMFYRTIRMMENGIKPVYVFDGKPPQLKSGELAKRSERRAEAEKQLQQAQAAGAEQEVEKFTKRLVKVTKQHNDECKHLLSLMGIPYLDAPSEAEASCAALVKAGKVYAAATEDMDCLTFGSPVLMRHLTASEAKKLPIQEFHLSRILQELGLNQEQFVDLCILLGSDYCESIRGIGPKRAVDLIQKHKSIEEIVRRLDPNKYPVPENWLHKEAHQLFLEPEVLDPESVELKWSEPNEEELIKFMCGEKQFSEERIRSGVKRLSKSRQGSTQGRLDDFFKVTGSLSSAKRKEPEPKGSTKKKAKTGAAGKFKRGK
Method in brief: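 In this screen, 50 nM flap DNA substrate was added to 10 nM FEN1 pretreated with compound for 15 min at room temperature; cleavage was followed with reads at 0 and 15 min, and Hill fitting gave concentration–response parameters.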
With `O=C(O)CSc1nnc(COc2ccc([N+](=O)[O-])cc2)n1-c1ccccc1` the “activity change, negative = inhibition” value was inactive: -2.38%.
With `CCOc1ccc(C(=O)NC2CC(=O)N(c3ccc(C)cc3)C2)cc1OCC` (stereo unspecified) the “activity change, negative = inhibition” value was inactive: -5.97%.
`COc1ccccc1N(CC(=O)NCc1ccco1)S(=O)(=O)c1ccc(C)cc1` was tested, and the Potency was inconclusive: 56.2 µM [inhibitor, partial curve, poor fit].
For `COc1ccc(/C=N/NC(=O)c2nc(-c3ccccc3)cc(-c3ccccc3)n2)cc1O`, the Potency was inconclusive: 79.4 µM [inhibitor, single point].
For `Cc1nnc(N=c2ssnc2Cl)o1`, the Potency was inconclusive: 89.1 µM [inhibitor, single point].
With `COc1cc(/C=C/c2ccc3ccccc3[n+]2C)cc(OC)c1OC` the “activity change, negative = inhibition” value was inactive: -7.86%.
`Cc1c(C(=O)Nc2ccc3nc(N4CCOCC4)sc3c2)oc2ccccc12` was tested, and the Potency was inconclusive: 44.7 µM [inhibitor, partial curve, poor fit].
In the case of `COc1ccc(S(=O)(=O)N(C)CC(=O)Nc2ccc(F)cc2)cc1`, the “activity change, negative = inhibition” value is reported as inactive: 1.42%.
With `COc1cc2cc(C(=O)Nc3ccccc3)c(N)nc2cc1OC` the Potency was inconclusive: 56.2 µM [inhibitor, partial curve, poor fit].
For `O=C(NCc1nc(-c2ccc(C(F)(F)F)cc2)no1)Nc1ccc(OC(F)(F)F)cc1`, the Potency was inconclusive: 35.5 µM [inhibitor, partial curve, poor fit].
`COc1ccc2sc(N(Cc3cccnc3)C(=O)C3CCCCC3)nc2c1` was tested, and the Potency was inconclusive: 35.5 µM [inhibitor, partial curve, poor fit].
In the case of `O=c1c2cc(F)ccc2sn1-c1ccc(F)cc1`, the Potency is reported as active: 79.4 µM.
`CCCCCCSc1ccc([C@H]2N[C@@](CC(C)C)(C(=O)OC)[C@H]3C(=O)N(C)C(=O)[C@@H]23)cc1OC` was tested, and the Potency was inconclusive: 44.7 µM [inhibitor, partial curve, poor fit].
`CCOc1ccc(NC(=O)c2c[nH]n3c(=O)cc(C4CCN(C(=O)OC(C)(C)C)CC4)nc23)cc1` was tested, and the Potency was inconclusive: 31.6 µM [inhibitor, partial curve, poor fit].
For `O=C(O)c1ccc(NC2=C(n3nnc4ccccc43)C(=O)c3ccccc3C2=O)cc1`, the “activity change, negative = inhibition” value was inactive: 11.9%.
`COc1ccc(/C=N\NC(=O)c2cc(O)c(O)c(O)c2)cc1COc1ccc(C(=O)OCC(C)C)cc1` was tested, and the Potency was inconclusive: 14.1 µM [inhibitor, full curve, poor fit].
`COC1=C(N)C(=O)c2nc(C)ccc2C1=O` was tested, and the Potency was inconclusive: 50.1 µM [inhibitor, partial curve].
For `O=C(Nc1cccc(C(=O)N2CCN(c3cccc(Cl)c3)CC2)c1)c1ccccc1`, the “activity change, negative = inhibition” value was inactive: 1.34%.
With `S=C(NCc1ccccc1)NCc1cccc(Cl)c1` the Potency was inconclusive: 79.4 µM [inhibitor, partial curve, poor fit].
In the case of `COC(C(=O)C(O)C(C)O)C1Cc2cc3cc(OC4CC(OC5CC(O)C(O)C(C)O5)C(O)C(C)O4)c(C)c(O)c3c(O)c2C(=O)C1OC1CC(OC2CC(OC3CC(O)C(OC)C(C)O3)C(O)C(C)O2)C(O)C(C)O1` (stereo unspecified), the Potency is reported as inconclusive: 11.2 µM [inhibitor, full curve].
For `Cc1cccc(NS(=O)(=O)c2ccc3[nH]c4c(c3c2)CCCCCC4)c1`, the Potency was inconclusive: 50.1 µM [inhibitor, partial curve, poor fit].
`CCOc1cccc2c1N[C@@H](c1ccc(C(=O)O)cc1)[C@H]1CC=C[C@@H]21` was tested, and the Potency was active: 14.1 µM.
For `CC(C)c1nc(C(=O)N2CCc3c([nH]c4ccccc34)C2c2ccccn2)cs1` (stereo unspecified), the Potency was inconclusive: 44.7 µM [inhibitor, partial curve, poor fit].
`COc1ccc(CCNC(=O)C(=O)NCC(c2ccco2)S(=O)(=O)c2cccs2)cc1OC` (stereo unspecified) was tested, and the “activity change, negative = inhibition” value was inactive: -4.25%.
For `O=C(Nc1ccc(S(=O)(=O)Nc2nccs2)cc1)c1nn(-c2ccc(F)cc2)ccc1=O`, the Potency was inconclusive: 89.1 µM [inhibitor, single point].
In the case of `Cc1ccc(CCNC(=O)c2cc3c(s2)-c2c(C)cccc2OC3)cc1`, the “activity change, negative = inhibition” value is reported as inactive: 7.32%.
With `Cc1cc(C)c(C)c(N=Nc2nc3ccccc3n2C)c1C` the Potency was inconclusive: 89.1 µM [inhibitor, partial curve, poor fit].
With `CCCCC1CCC(C(=O)N2CC(=O)Nc3ccc(Br)cc3C2c2ccc(F)cc2)CC1` (stereo unspecified) the “activity change, negative = inhibition” value was inactive: -6.43%.
For `Nc1c(C(=O)NCc2ccccc2)c2nc3ccccc3nc2n1CCCN1CCOCC1`, the Potency was inconclusive: 12.6 µM [inhibitor, full curve].
With `CC(=O)Nc1ccc(NC(=O)CN(c2ccc(C34CC5CC(CC(C5)C3)C4)cc2)S(C)(=O)=O)cc1` the “activity change, negative = inhibition” value was inactive: -17.2%.
`O=C(Nc1cc([N+](=O)[O-])ccc1O)c1cccc(C(=O)Nc2cc([N+](=O)[O-])ccc2O)c1` was tested, and the Potency was inconclusive: 79.4 µM [inhibitor, single point].
For `O=C(CSc1nccc(=O)[nH]1)c1c[nH]c2ccccc12`, the “activity change, negative = inhibition” value was inactive: 14.2%.
In the case of `Cc1ccc(CNC(=O)C(=O)Nc2c3c(nn2-c2ccc(F)cc2)CSC3)cc1`, the “activity change, negative = inhibition” value is reported as inactive: -3.6%.
With `C/C(=N\Nc1cc(C)nc(-c2ccccc2O)n1)c1ccccc1O` the Potency was inconclusive: 44.7 µM [inhibitor, partial curve, poor fit].
With `Cc1ccc(N(CC(=O)N2CCN(c3cc(C)ccc3C)CC2)S(=O)(=O)c2c(C)nn(C)c2C)cc1` the Potency was inconclusive: 56.2 µM [inhibitor, partial curve, poor fit].
For `CCOc1ccc(NS(=O)(=O)c2c(C)nc3sc(C)c(C)n3c2=O)cc1`, the “activity change, negative = inhibition” value was inactive: -2.65%.
In the case of `O=C(NNc1ccccc1Cl)C(O)(c1cccc(C(F)(F)F)c1)c1cccc(C(F)(F)F)c1`, the Potency is reported as inconclusive: 44.7 µM [inhibitor, partial curve, poor fit].
In the case of `CCN(CC)CCNC(=O)c1ccc(NC(=O)/C=C/c2cc(OC)c(OC)c(OC)c2)cc1`, the Potency is reported as inconclusive: 50.1 µM [inhibitor, partial curve].
`O=C(O)Cn1cc2c(n1)CCCC2` was tested, and the “activity change, negative = inhibition” value was inactive: 4.35%.
In the case of `CCOc1ccc(-n2c(C)cc(/C=C3/C(=N)N4C(=NC3=O)SN=C4S(C)(=O)=O)c2C)cc1`, the “activity change, negative = inhibition” value is reported as inactive: 0.29%.
With `CSc1nc2nccc(-c3ccc(-c4ccccc4)cc3)n2n1` the Potency was inconclusive: 79.4 µM [inhibitor, partial curve].
